The values below come from the supplement of paper PMC10886265.

MIC by broth microdilution (CLSI, 0.25-128 µg/mL, 18 h, 37 °C) of Gram-negative wastewater isolates picked on carbapenem-selective plates; higher = less susceptible. No active / inactive call. Isolates were selected for resistance.

Test in all cases: Broth microdilution (CLSI), cation-adjusted Mueller-Hinton broth, two-fold steps from 0.25 to 128 µg/mL, 18 h at 37 °C.
Compound in assay [1]: C[C@@H](O)[C@H]1C(=O)N2C(C(=O)O)=C(SCCNC=N)C[C@H]12 [Imipenem]
Compound in assay [2]: C[C@@H](O)[C@H]1C(=O)N2C(C(=O)O)=C(S[C@@H]3CN[C@H](C(=O)N(C)C)C3)[C@H](C)[C@H]12 [Meropenem]
Compound in assay [3]: C[C@@H](O)[C@H]1C(=O)N2C(C(=O)O)=C(S[C@@H]3CN[C@H](C(=O)Nc4cccc(C(=O)O)c4)C3)[C@H](C)[C@H]12 [Ertapenem]

Turning to “Pseudomonas koreensis isolate sewage #16 (carbapenemase genes (PCR): ND)”, the figures for the MIC in assay [1], in assay [2] and in assay [3] were 32 µg/mL, 128 µg/mL and 16 µg/mL, respectively.
For “Pseudomonas monteilii isolate secondary sludge #39 (carbapenemase genes (PCR): IMP)” the same measures were 32 µg/mL, 128 µg/mL and 64 µg/mL.
For “Pseudomonas putida isolate secondary sludge #48 (carbapenemase genes (PCR): IMP)” the same measures were 32 µg/mL, above 128 µg/mL and 64 µg/mL.
For “Pseudomonas putida isolate secondary sludge #50 (carbapenemase genes (PCR): IMP)” the same measures were 64 µg/mL, above 128 µg/mL and 64 µg/mL.
Consider “Pseudomonas putida isolate secondary sludge #51 (carbapenemase genes (PCR): IMP)”, for which the MIC in assay [1] is 64 µg/mL; in assay [2], above 128 µg/mL; in assay [3], 64 µg/mL.
Take “Pseudomonas putida isolate secondary sludge #53 (carbapenemase genes (PCR): ND)”: the values for the MIC in assay [1], in assay [2] and in assay [3] were 16 µg/mL, 128 µg/mL and 64 µg/mL, respectively.
In the same order, the values of “Pseudomonas putida isolate secondary sludge #57 (carbapenemase genes (PCR): IMP)” are 128 µg/mL, 64 µg/mL and 64 µg/mL.
In the same order, the values of “Pseudomonas putida isolate sewage #14 (carbapenemase genes (PCR): ND)” are 16 µg/mL, 64 µg/mL and 8 µg/mL.
For “Pseudomonas putida isolate sewage #35 (carbapenemase genes (PCR): IMP)” the same measures were 16 µg/mL, 64 µg/mL and 4 µg/mL.
In the case of “Pseudomonas putida isolate sewage #72 (carbapenemase genes (PCR): IMP)”, the MIC worked out at 64 µg/mL in assay [1], 128 µg/mL in assay [2] and 64 µg/mL in assay [3].
As for “Pseudomonas putida isolate sewage #74 (carbapenemase genes (PCR): IMP)”, the MIC is 128 µg/mL in assay [1], 128 µg/mL in assay [2] and 64 µg/mL in assay [3].
Take “Pseudomonas putida isolate sewage #98 (carbapenemase genes (PCR): IMP)”: the MIC in assay [1] came to 64 µg/mL; in assay [2], 128 µg/mL; in assay [3], 64 µg/mL.
As for “Pseudomonas putida isolate sewage #102 (carbapenemase genes (PCR): IMP)”, the figures for the MIC in assay [1], in assay [2] and in assay [3] were 16 µg/mL, 64 µg/mL and 64 µg/mL, respectively.
With “Pseudomonas putida isolate sewage #103 (carbapenemase genes (PCR): IMP)”, the MIC in assay [1] turned out to be 16 µg/mL; in assay [2] it was 64 µg/mL; in assay [3], 64 µg/mL.
Turning to “Pseudomonas putida isolate sewage #105 (carbapenemase genes (PCR): IMP)”, the MIC in assay [1] was found to be 16 µg/mL; in assay [2], 64 µg/mL; in assay [3] it was 64 µg/mL.
Turning to “Pseudomonas putida isolate sewage #108 (carbapenemase genes (PCR): IMP)”, the MIC in assay [1] turned out to be 32 µg/mL; in assay [2], 64 µg/mL; in assay [3], 64 µg/mL.
For the test system “Stenotrophomonas maltophilia isolate primary sludge #37 (carbapenemase genes (PCR): KPC)”, the MIC came to 128 µg/mL in assay [1], 128 µg/mL in assay [2] and 64 µg/mL in assay [3].
As to “Stenotrophomonas maltophilia isolate primary sludge #176 (carbapenemase genes (PCR): ND)”, the MIC was 64 µg/mL in assay [1], 64 µg/mL in assay [2] and 32 µg/mL in assay [3].
As to “Stenotrophomonas maltophilia isolate secondary sludge #26 (carbapenemase genes (PCR): ND)”, the MIC was 128 µg/mL in assay [1], 128 µg/mL in assay [2] and 64 µg/mL in assay [3].
For the test system “Stenotrophomonas maltophilia isolate secondary sludge #31 (carbapenemase genes (PCR): ND)”, the MIC in assay [1] stood at 128 µg/mL; in assay [2] it was 64 µg/mL; in assay [3] it was 64 µg/mL.
For “Stenotrophomonas maltophilia isolate secondary sludge #158 (carbapenemase genes (PCR): ND)”, the MIC in assay [1] worked out at 32 µg/mL; in assay [2] it was 64 µg/mL; in assay [3], 16 µg/mL.
For “Stenotrophomonas maltophilia isolate secondary sludge #159 (carbapenemase genes (PCR): ND)” the same measures were 64 µg/mL, 32 µg/mL and 32 µg/mL.
For “Stenotrophomonas maltophilia isolate sewage #15 (carbapenemase genes (PCR): ND)” the same measures were 16 µg/mL, 64 µg/mL and 16 µg/mL.
In the same order, the values of “Stenotrophomonas maltophilia isolate sewage #93 (carbapenemase genes (PCR): IMP)” are 128 µg/mL, 128 µg/mL and 64 µg/mL.
